Laboratory results as given in article PMC13399123.
These are yes or no findings as the source states them, for the method shown. Binding seen in cells or lysates may run through a third protein. Some binding calls cover weakened binding; strength is not graded here. Where a sequence is shown, tags or fusion partners need not be part of it.

B1: HCLS1-binding protein 3 (HS1BP3), endogenous in MKN-74 cells (protein, UniProt Q53T59 1-392)
chain: MQSPAVLVTSRRLQNAHTGLDLTVPQHQEVRGKMMSGHVEYQILVVTRLAAFKSAKHRPEDVVQFLVSKKYSEIEEFYQKLSSRYAAASLPPLPRKVLFVGESDIRERRAVFNEILRCVSKDAELAGSPELLEFLGTRSPGAAGLTSRDSSVLDGTDSQTGNDEEAFDFFEEQDQVAEEGPPVQSLKGEDAEESLEEEEALDPLGIMRSKKPKKHPKVAVKAKPSPRLTIFDEEVDPDEGLFGPGRKLSPQDPSEDVSSVDPLKLFDDPDLGGAIPLGDSLLLPAACESGGPTPSLSHRDASKELFRVEEDLDQILNLGAEPKPKPQLKPKPPVAAKPVIPRKPAVPPKAGPAEAVAGQQKPQEQIQAMDEMDILQYIQDHDTPAQAAPSLF
B2: EGFP-HS1BP3 WT (protein, UniProt Q53T59 1-392)
chain: B1 chain
B3: cortactin (CTTN), endogenous in MKN-74 cells, Q14247 1-550 (protein)
chain: MWKASAGHAVSIAQDDAGADDWETDPDFVNDVSEKEQRWGAKTVQGSGHQEHINIHKLRENVFQEHQTLKEKELETGPKASHGYGGKFGVEQDRMDKSAVGHEYQSKLSKHCSQVDSVRGFGGKFGVQMDRVDQSAVGFEYQGKTEKHASQKDYSSGFGGKYGVQADRVDKSAVGFDYQGKTEKHESQRDYSKGFGGKYGIDKDKVDKSAVGFEYQGKTEKHESQKDYVKGFGGKFGVQTDRQDKCALGWDHQEKLQLHESQKDYKTGFGGKFGVQSERQDSAAVGFDYKEKLAKHESQQDYSKGFGGKYGVQKDRMDKNASTFEDVTQVSSAYQKTVPVEAVTSKTSNIRANFENLAKEKEQEDRRKAEAERAQRMAKERQEQEEARRKLEEQARAKTQTPPVSPAPQPTEERLPSSPVYEDAASFKAELSYRGPVSGTEPEPVYSMEAADYREASSQQGLAYATEAVYESAEAPGHYPAEDSTYDEYENDLGITAVALYDYQAAGDDEISFDPDDIITNIEMIDDGWWRGVCKGRYGLFPANYVELRQ

Key:
[1] = target: GST-SH3 (SH3 domain of cortactin fused to GST) (UniProt Q14247); assay: pull-down; GST-SH3 (cortactin) on Glutathione Sepharose 4B beads incubated with 450 ug MKN-74 cell lysate, 2 h at 4 °C, six washes with GST-buffer, anti-HS1BP3 immunoblot; only the target purified
[2] = target: T1, TKS5-EGFP (UniProt Q5TCZ1); assay: co-IP; GFP-Trap agarose beads, at least 450 ug MKN-74 lysate in RIPA buffer, 2.5 h, four washes in RIPA buffer, immunoblot; for TKS5-EGFP in MKN-74 WT and HS1BP3 KO cells
T1 sequence: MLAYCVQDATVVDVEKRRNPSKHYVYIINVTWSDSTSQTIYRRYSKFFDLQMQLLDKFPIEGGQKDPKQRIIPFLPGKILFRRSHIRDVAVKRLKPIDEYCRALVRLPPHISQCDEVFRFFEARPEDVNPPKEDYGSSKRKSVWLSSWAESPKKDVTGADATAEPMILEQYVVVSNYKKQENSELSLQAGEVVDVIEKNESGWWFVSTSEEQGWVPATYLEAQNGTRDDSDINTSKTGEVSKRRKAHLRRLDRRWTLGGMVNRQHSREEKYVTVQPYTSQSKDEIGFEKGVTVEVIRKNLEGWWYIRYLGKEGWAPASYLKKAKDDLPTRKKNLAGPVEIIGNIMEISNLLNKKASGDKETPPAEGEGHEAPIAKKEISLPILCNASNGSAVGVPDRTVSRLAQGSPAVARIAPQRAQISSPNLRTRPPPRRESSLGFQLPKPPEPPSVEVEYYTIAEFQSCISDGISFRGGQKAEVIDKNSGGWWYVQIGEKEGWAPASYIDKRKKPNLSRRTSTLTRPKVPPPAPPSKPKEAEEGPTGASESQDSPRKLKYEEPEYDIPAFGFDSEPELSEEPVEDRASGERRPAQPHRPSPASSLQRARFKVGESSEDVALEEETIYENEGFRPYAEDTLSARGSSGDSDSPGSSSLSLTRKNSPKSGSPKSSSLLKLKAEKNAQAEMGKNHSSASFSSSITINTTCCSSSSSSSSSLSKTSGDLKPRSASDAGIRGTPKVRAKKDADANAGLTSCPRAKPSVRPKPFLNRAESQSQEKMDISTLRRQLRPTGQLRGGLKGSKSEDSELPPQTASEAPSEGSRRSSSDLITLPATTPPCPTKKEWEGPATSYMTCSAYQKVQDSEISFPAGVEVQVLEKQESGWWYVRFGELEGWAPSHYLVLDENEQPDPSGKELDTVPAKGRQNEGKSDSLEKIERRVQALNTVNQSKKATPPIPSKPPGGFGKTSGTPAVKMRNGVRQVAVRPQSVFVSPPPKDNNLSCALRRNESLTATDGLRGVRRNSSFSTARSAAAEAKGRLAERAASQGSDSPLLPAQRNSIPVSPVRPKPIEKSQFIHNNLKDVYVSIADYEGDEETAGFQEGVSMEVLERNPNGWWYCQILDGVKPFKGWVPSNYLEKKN

[3] = target: T2, TKS5-EGFP, Q5TCZ1; assay: as above; conditions: remark: other sources report otherwise
T2 chain: T1 sequence

| Binder | binding [1] | binding [2] | binding [3] |
| --- | --- | --- | --- |
| B1 | binds | no binding | – |
| B2 | binds | – | – |
| B3 | – | – | binds |
